Measurements from PubChem BioAssay AID504339 (National Center for Advancing Translational Sciences (NCATS), 2011).
About 17,000 (4.4%) of roughly 390,000 compounds were called active. The inconclusive results got no clear call from the source; some entries with a clear call stand among them for comparison. The call rests on the fitted dose curve; in most records, active means well fitted inhibition curve with a large enough effect; inconclusive means small, poorly fitted or top-dose-only effect; inactive means no such curve, though single readings can be large or run the other way. Potencies of inconclusive entries are doubtful fits and often do not repeat.

What follows are compounds tested against Lysine-specific demethylase 4A (Homo sapiens) (UniProt O75164) (assay: qHTS Assay for Inhibitors of JMJD2A-Tudor Domain). Conditions: AlphaScreen JMJD2A-Tudor / H3K4me3 peptide binding; activity change, negative = inhibition: at 114 µM (top of the series).
Chain of UniProt O75164 (O75164 whole entry, looked up, the tested form may be a part): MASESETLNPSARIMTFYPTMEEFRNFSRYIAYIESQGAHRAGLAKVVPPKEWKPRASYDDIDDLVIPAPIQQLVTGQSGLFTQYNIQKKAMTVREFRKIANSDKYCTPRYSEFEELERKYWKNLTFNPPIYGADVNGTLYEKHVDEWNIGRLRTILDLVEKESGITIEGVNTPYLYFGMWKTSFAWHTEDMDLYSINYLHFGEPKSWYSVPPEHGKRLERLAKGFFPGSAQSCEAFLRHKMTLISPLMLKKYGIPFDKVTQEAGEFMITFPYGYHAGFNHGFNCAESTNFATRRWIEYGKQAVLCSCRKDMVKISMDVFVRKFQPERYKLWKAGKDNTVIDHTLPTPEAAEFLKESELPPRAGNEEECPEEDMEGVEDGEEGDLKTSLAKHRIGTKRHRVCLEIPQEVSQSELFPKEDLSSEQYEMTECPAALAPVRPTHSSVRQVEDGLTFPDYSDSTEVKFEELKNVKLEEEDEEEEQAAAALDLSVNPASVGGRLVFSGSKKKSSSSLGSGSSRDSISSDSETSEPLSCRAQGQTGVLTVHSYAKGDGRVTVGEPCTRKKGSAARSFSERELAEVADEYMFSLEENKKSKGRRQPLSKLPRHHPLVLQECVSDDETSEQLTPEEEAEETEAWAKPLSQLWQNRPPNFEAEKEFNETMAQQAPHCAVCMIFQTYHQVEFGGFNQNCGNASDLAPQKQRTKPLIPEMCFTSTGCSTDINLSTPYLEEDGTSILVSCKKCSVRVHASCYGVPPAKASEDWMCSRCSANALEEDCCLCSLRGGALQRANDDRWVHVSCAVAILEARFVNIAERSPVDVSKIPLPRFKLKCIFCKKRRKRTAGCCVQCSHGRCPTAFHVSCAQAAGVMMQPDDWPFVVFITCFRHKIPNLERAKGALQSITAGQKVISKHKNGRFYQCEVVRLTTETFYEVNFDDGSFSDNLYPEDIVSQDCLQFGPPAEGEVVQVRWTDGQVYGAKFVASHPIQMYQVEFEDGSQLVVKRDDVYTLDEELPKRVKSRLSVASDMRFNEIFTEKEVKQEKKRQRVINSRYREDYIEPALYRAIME
Further: nearly all actives have a fitted effect of over 50% in size.
On the % scale 0 is the no-effect control and ±100 the full control effect; potency means the concentration at half of the fitted maximal effect; tags describe the fitted curve by direction and shape.

Q: With `Cc1cc(C)c2sc(N(CCCN(C)C)C(=O)c3ccc(S(=O)(=O)N(C)C4CCCCC4)cc3)nc2c1` as the compound, how does the Potency read?
A: inconclusive: 39.8 µM [inhibitor, full curve]

Q: Which Potency does the source give for `O=C(/C=C/Nc1ccc(Nc2ccccc2)cc1)c1cccs1` here?
A: inconclusive: 22.4 µM [inhibitor, full curve]

Q: `CCN1CCN(c2ccc(S(=O)(=O)N3CCOCC3)cc2NC(=O)COc2ccc(F)cc2Cl)CC1` was tested. Which Potency did it give?
A: inactive

Q: For `Cn1c(C(=O)N(Cc2ccccc2)Cc2cccs2)cc2sccc21`, which Potency is on record?
A: inconclusive: 35.5 µM [inhibitor, full curve, poor fit]

Q: How did the Potency turn out when `O=C(O)C1Nc2c(O)cccc2C2C=CCC12` (stereo not given) was run?
A: active: 2.51 µM

Q: How did the Potency turn out when `C[C@@H]1CN([C@H](C)CO)C(=O)c2cc(NC(=O)Cc3cn(C)c4ccccc34)ccc2O[C@H]1CN(C)C(=O)Nc1ccc2c(c1)OCO2` was run?
A: inconclusive: 10 µM [inhibitor, full curve]

Q: Which Potency does the source give for `Cc1ccc(CN2CCSc3ccc(C(=O)N4CCN(c5ncccn5)CC4)cc32)cc1` here?
A: inconclusive: 12.6 µM [inhibitor, full curve]

Q: With `COC(=O)Cc1cc(=O)n(-c2nc3ccccc3[nH]2)[nH]1` as the compound, how does the Potency read?
A: active: 17.8 µM

Q: How did the Potency turn out when `O=C(/C=C/c1ccc([N+](=O)[O-])cc1)N(c1ccccn1)C1CCCCC1` was run?
A: active: 56.2 µM

Q: With `CC(C)c1nc(NCc2ccccc2)c(C#N)c2c1CCCC2` as the compound, how does the activity change, negative = inhibition read?
A: inactive: 6.11% [at 11.4 µM]

Q: `Cc1c(C)n(C)c2ccc(C(=O)Nc3cccc4ccccc34)cc12` was tested. Which Potency did it give?
A: inconclusive: 50.1 µM [inhibitor, partial curve]

Q: Which Potency does the source give for `Cc1cc(OCC(=O)Nc2ccc(N3CCN(C)CC3)cc2)ccc1Cl` here?
A: inconclusive: 56.2 µM [inhibitor, partial curve]

Q: How did the Potency turn out when `COc1cc(CNC2CCCc3ccccc32)cc(OC)c1OC` (stereo not given) was run?
A: active: 10 µM

Q: With `COc1ccc(NC(=O)C/C(C)=N/NC(=O)c2cnccn2)c(OC)c1` as the compound, how does the Potency read?
A: inactive

Q: Which Potency does the source give for `Cc1nc2[nH]c(=S)[nH]c2cc1Br` here?
A: active: 44.7 µM

Q: `CCCOc1cccc(C2C(C(=O)c3cc4ccccc4o3)=C(O)C(=O)N2c2cc(C)on2)c1` (stereo not given) was tested. Which Potency did it give?
A: inconclusive: 39.8 µM [inhibitor, partial curve, poor fit]

Q: How did the Potency turn out when `Nc1cccc2nc3ccccc3cc12` was run?
A: inactive

Q: `CCCCC(c1nnnn1CC1CCCO1)N1CCN(c2cc(Cl)ccc2C)CC1` (stereo not given) was tested. Which Potency did it give?
A: inconclusive: 28.2 µM [inhibitor, partial curve]

Q: How did the Potency turn out when `Cc1nc2c3cnn(-c4ccc(C)c(C)c4)c3ncn2n1` was run?
A: inactive

Q: How did the Potency turn out when `Cc1cc(C)cc(OC(=O)CS(=O)c2ccc(C(F)(F)F)cc2[N+](=O)[O-])c1` (stereo not given) was run?
A: inconclusive: 39.8 µM [inhibitor, single point]

Q: For `Cc1ccc(N2C(=O)CC(Sc3ccccc3C(=O)O)C2=O)c([N+](=O)[O-])c1` (stereo not given), which Potency is on record?
A: inconclusive: 63.1 µM [inhibitor, partial curve]

Q: For `CCOc1ccccc1NC(=O)C(=O)NCCC1=CCCCC1`, which Potency is on record?
A: inconclusive: 25.1 µM [inhibitor, full curve]

Q: For `C(=N\N1CCN(C2c3ccccc3-c3ccccc32)CC1)/c1ccccn1`, which Potency is on record?
A: active: 17.8 µM

Q: Which Potency does the source give for `O=C(Oc1cccc2cccnc12)c1ccc(N2C(=O)C3C4CCC(C4)C3C2=O)cc1` (stereo not given) here?
A: inconclusive: 56.2 µM [inhibitor, partial curve]

Q: With `COc1ccc(/C=C/c2ccc(=O)n(Cc3ccccc3)n2)cc1` as the compound, how does the Potency read?
A: inconclusive: 15.8 µM [inhibitor, full curve]

Q: Which Potency does the source give for `COc1ccc(OCc2nnc(SC(C)C(=O)Nc3ccc(N4CCOCC4)cc3)n2C)cc1` (stereo not given) here?
A: inactive

Q: `O=C(COc1ccc(F)cc1)Nc1cc(S(=O)(=O)N2CCCCC2)ccc1N1CCCCC1` was tested. Which Potency did it give?
A: inconclusive: 39.8 µM [inhibitor, partial curve]

Q: For `Cn1c(N)c(N=O)c(=O)n(C)c1=S`, which Potency is on record?
A: inactive

Q: Which Potency does the source give for `NC(=O)COC(=O)c1c2c(nc3ccccc13)CCC2` here?
A: inconclusive: 79.4 µM [inhibitor, partial curve]

Q: For `COC(=O)c1c(/N=C/N(C)C)sc2c1CCN(c1ncc(C(F)(F)F)cc1Cl)C2`, which Potency is on record?
A: inconclusive: 50.1 µM [inhibitor, partial curve]

Q: `Cc1ccc(Nc2nc(CSc3nnc(-c4ccncc4)n3-c3ccccc3C)cs2)cc1` was tested. Which Potency did it give?
A: inconclusive: 14.1 µM [inhibitor, full curve]

Q: With `CCc1ccc(-n2c(SCC(=O)N3Cc4ccccc4CC3C(=O)O)nnc2-c2ccncc2)cc1` (stereo not given) as the compound, how does the Potency read?
A: inconclusive: 31.6 µM [inhibitor, single point]

Q: `N#CCCN(NC1=NS(=O)(=O)c2ccccc21)C(=O)c1ccccc1Br` was tested. Which Potency did it give?
A: active: 35.5 µM

Q: With `Cc1[nH]c2ccccc2c1/C=N/NC(=O)c1cccc(S(=O)(=O)Nc2ccccc2Cl)c1` as the compound, how does the Potency read?
A: inconclusive: 39.8 µM [inhibitor, single point]

Q: With `Cc1cccc(Nc2nc(-c3sc(C)nc3C)cs2)c1` as the compound, how does the Potency read?
A: inconclusive: 56.2 µM [inhibitor, partial curve]

Q: For `Cc1ccc(Cl)cc1Nc1sc(C(=O)c2ccc(F)cc2)c(N)c1S(C)(=O)=O`, which Potency is on record?
A: inactive

Q: `COc1ccc(C(=O)/C=C/Nc2ccc(S(=O)(=O)Nc3cc(OC)nc(OC)n3)cc2)c(OC)c1` was tested. Which Potency did it give?
A: inactive

Q: How did the Potency turn out when `COc1ccc(CN2CCN(C(C)C)C(CCO)C2)cc1Cn1cccn1` (stereo not given) was run?
A: inconclusive: 39.8 µM [inhibitor, partial curve]

Q: With `CC1CN(S(=O)(=O)c2ccc(C(=O)Nc3ccc(S(=O)(=O)Nc4ncccn4)cc3)cc2)CC(C)O1` (stereo not given) as the compound, how does the Potency read?
A: inactive

Q: With `Oc1nc(-c2ccc(Cl)cc2)n2ccncc12` as the compound, how does the Potency read?
A: inconclusive: 89.1 µM [inhibitor, partial curve]

Q: With `Cc1nc2ccc(N=NC3=C(O)CC(C)(C)CC3=O)cc2s1` as the compound, how does the Potency read?
A: inconclusive: 56.2 µM [inhibitor, partial curve]

Q: Which Potency does the source give for `COc1ccccc1N(C)S(=O)(=O)c1ccc(C(=O)OCC(=O)NCc2ccco2)cc1` here?
A: inconclusive: 79.4 µM [inhibitor, partial curve]

Q: `O=C(c1cc(-c2ccco2)nc2ccccc12)N1CCCC(C(F)(F)F)C1` (stereo not given) was tested. Which Potency did it give?
A: active: 39.8 µM

Q: For `C/C(=N\NC(=O)c1ccccc1Cl)c1ccccn1`, which Potency is on record?
A: active: 56.2 µM

Q: How did the Potency turn out when `O=c1cnnc(Nc2ccc(Nc3ccccc3)cc2)[nH]1` was run?
A: inconclusive: 50.1 µM [inhibitor, partial curve]

Q: With `COc1ccccc1Nc1c2c(nc3ccc(NC(=O)c4ccc(OC)c(OC)c4)cc13)CCCC2` as the compound, how does the Potency read?
A: inconclusive: 31.6 µM [inhibitor, partial curve]

Q: With `O=C1/C(=C\c2cccs2)Sc2ccc3ccccc3c21` as the compound, how does the Potency read?
A: inconclusive: 6.31 µM [inhibitor, full curve]

Q: With `CC(=O)c1ccc(NC(=S)NNC(=O)c2ccncc2)cc1` as the compound, how does the Potency read?
A: inconclusive: 63.1 µM [inhibitor, single point]

Q: Which Potency does the source give for `CC1(C)CC(=O)C(CC(=O)Nc2ccc(S(N)(=O)=O)cc2)=C(O)C1` here?
A: inconclusive: 4.47 µM [inhibitor, full curve, poor fit]

Q: How did the Potency turn out when `CCCCOC(=O)c1ccc(NC(=S)N2CCN(c3ncc4c(=O)c(C(=O)O)cn(CC)c4n3)CC2)cc1` was run?
A: inconclusive: 100 µM [inhibitor, partial curve, poor fit]

Q: For `CN1CCC2(CC1)N=C(c1ccc(F)cc1)C(=S)N2C(=O)c1ccc(C(C)(C)C)cc1`, which Potency is on record?
A: active: 31.6 µM

Q: How did the Potency turn out when `CC1C(=O)NN=C1C(=O)N/N=C/c1cccs1` (stereo not given) was run?
A: inconclusive: 25.1 µM [inhibitor, single point]

Q: For `Cc1ccc(-c2nc(=Nc3c(C)cc(C)cc3C)sn2-c2ccccc2)cc1`, which Potency is on record?
A: inconclusive: 3.98 µM [inhibitor, full curve, poor fit]

Q: For `COCCn1c(SCc2cccc(F)c2)nc2cc(C(=O)OC)ccc2c1=O`, which Potency is on record?
A: inactive

Q: With `CNC(=O)/C(C#N)=C/c1c(N(Cc2ccccc2)Cc2ccccc2)nc2ccccn2c1=O` as the compound, how does the Potency read?
A: inconclusive: 50.1 µM [inhibitor, partial curve]

Q: How did the Potency turn out when `O=C(CC1=NC2(CCCC2)Cc2ccccc21)N1CCOCC1` was run?
A: inconclusive: 56.2 µM [inhibitor, partial curve]

Q: Which Potency does the source give for `CCc1ccc(Cn2c(CNS(=O)(=O)c3ccc([N+](=O)[O-])cc3)nc3cccnc32)cc1` here?
A: inactive

Q: `CCOC(=O)c1[nH]nc(-c2cc(CC)c(O)cc2O)c1-c1cscn1` was tested. Which Potency did it give?
A: active: 89.1 µM

Q: How did the Potency turn out when `CCc1c(C)nc2ncnn2c1Nc1ccccc1C` was run?
A: inconclusive: 17.8 µM [inhibitor, single point]

Q: Which Potency does the source give for `CCOc1ccc(NC(=S)NC(C)c2cccs2)cc1` (stereo not given) here?
A: inactive

Q: For `COc1ccc(-c2csc(NC(=O)CN3C(=O)C4CC=CCC4C3=O)n2)cc1OC` (stereo not given), which Potency is on record?
A: inconclusive: 56.2 µM [inhibitor, partial curve, poor fit]

Q: `CCOC(=O)N1CCN(c2ccc(Cl)cc2)CC1` was tested. Which Potency did it give?
A: inactive

Q: How did the Potency turn out when `CCOC(=O)c1cc(-c2ccc(OC)c(S(=O)(=O)NC3CCCCC3)c2)on1` was run?
A: inactive

Q: Which Potency does the source give for `O=C(Cc1ccc(Cl)cc1)Oc1cccc2cccnc12` here?
A: active: 25.1 µM

Q: How did the Potency turn out when `Cc1cc(NC(=O)CCN2C(=O)C3C4CCC(C4)C3C2=O)c(C)cc1Br` (stereo not given) was run?
A: inconclusive: 100 µM [inhibitor, single point]

Q: With `Cc1cc(C)c(NC(=O)CCN2CCN(Cc3ccccc3)CC2)c(C)c1` as the compound, how does the Potency read?
A: inactive

Q: Which Potency does the source give for `Cc1cccc(-n2c(C)c(C)c3c(N)ncnc32)c1` here?
A: inconclusive: 56.2 µM [inhibitor, partial curve]

Q: For `Cc1ccccc1-n1c(SCC(=O)c2cc(C)n(C)c2C)nnc1-c1cccnc1`, which Potency is on record?
A: inconclusive: 79.4 µM [inhibitor, single point]

Q: With `COC(=O)c1ccc(NC(=O)C2CCN(C(=O)c3cc(OC)c(OC)c(OC)c3)CC2)cc1` as the compound, how does the Potency read?
A: active: 44.7 µM

Q: `Cc1ccc(CNS(=O)(=O)c2cc(F)ccc2CN2C(=O)c3cccnc3C2=O)o1` was tested. Which Potency did it give?
A: inactive
